Measured values: patent US6660767B2, “Coumarin compounds as microtubule stabilizing agents and therapeutic uses thereof” (The Regents of the University of California, priority 2001, dated 2003)

System: microtubule plus ends
Assay: Steady-state dynamic instability of individual microtubules by DIC video microscopy
Type: biochemical, bovine
Settings: plus ends at steady state
Description: Analysis of dynamic instability behavior of individual microtubules at steady state was conducted with real-time DIC video microscopy as described by Walker et al. (1988) J. Cell Biol. 107:1437-1448 and Panda et al. (1995) Biochem 34:9921-9929, both of which are herein incorporated by reference. A Hamamatsu C2400 Newvicon video camera was used to capture the images of microtubules which were enhanced with a Hamamatsu DVS3000 digital image processor. Analysis of length changes was performed using a video analysis software program designed by N. Gliksman at the University of North Carolina.
Microtubules were grown at the ends of sea urchin flagellar axonemal fragments (seeds) to distinguish the plus and minus ends. The microtubules were allowed to achieve polymer-mass steady state which took less than about 30 minutes, and analysis of the steady-state dynamics was carried out for about 30 minutes to about 45 minutes without deterioration of the microtubules or any detectable changes in dynamics. The individual dynamic instability parameters were analyzed quantitatively. These included the rates of growing and shortening, the lengths of time microtubules grow and shorten, the mean lengths of each growing or shortening event, the transition frequencies from the growing or attenuated state to shortening or from shortening to the growing or attenuated or paused state, the percentage of total time the microtubules spend growing, shortening, or in the attenuated state, and the overall dynamicity, the combined total observable growing and shortening per unit time. See Kowalski, R. J. et al. (1993) 26(4):282-290, which is herein incorporated by reference.
Tubulin pellets were thawed and centrifuged at 4° C. to remove any aggregated or denatured tubulin. The purified tubulin was mixed with axoneme seeds and polymerized in PMME buffer (87 mM PIPES, 36 mM MES, 1.4 mM MgCl2, 1 mM EGTA, pH 6.8) comprising 1 mM GTP in the presence or absence of coumarin compounds. […].
After 35 minutes of incubation, samples of microtubule suspensions (2.5 μl and 2.0 μl) were prepared for video microscopy, and the dynamics of individual microtubules were recorded at 37° C. as described previously (Panda et al. (1995) Biochem. 34:9921-9929, which is herein incorporated by reference).
The microtubule was determined to be in a growing phase if the microtubule increased in length by >0.2 μM at a rate >0.15 μm/min and in a shortening phase if the microtubule shortened in length by >0.2 μM at a rate >0.3 μm/min. Length changes equal to or less than 0.2 μm over the duration of six data points were considered as attenuation phases. The same tubulin preparation for all experiments was used and for preliminary experiments, an average of about 10 to about 15 microtubules was measured for each experimental condition, and for the results provided in Table 1, about 20 to about 30 microtubules were analyzed for each experimental condition.
The catastrophe frequency (transition from the growing or attenuated state to shortening) was calculated by dividing the number of catastrophes by the sum of the total time spent in the growing plus attenuated states for all microtubules for a particular condition. The rescue frequency (transition from shortening to growing or attenuation, excluding new growth from a seed) was calculated by dividing the total number of rescue events by the total time spent shortening for all microtubules for a particular condition. […]

## O=c1oc2ccccc2c(O)c1Cc1c(O)c2ccccc2oc1=O [dicoumarol]
Dicoumarol 0.04 μM
  Mean Length Growing: 0.70 ± 0.09 μm/event
Dicoumarol 0.1 μM
  Mean Length Growing: 0.61 ± 0.10 μm/event
Dicoumarol 1.0 μM
  Mean Length Growing: 0.95 ± 0.22 μm/event
Dicoumarol 10.0 μM
  Mean Length Growing: 0.58 ± 0.09 μm/event
Dicoumarol 50.0 μM
  Mean Length Growing: 1.00 ± 0.17 μm/event
